The text below walks through data of PubChem BioAssay AID360 (National Center for Advancing Translational Sciences (NCATS), 2006).

Screen size: about 48,000 compounds; about 550 (1.1%) were called active. Roughly 4% stayed inconclusive and do not appear here. Cut-off read from the data, not from the text of the source: active = potency below about 15 µM; inconclusive = mostly about 16 µM to 33 µM; inactive = weaker than that. Some of the results follow.
Potency is the fitted concentration of half-maximal effect.

Sequence of UniProt P04062 (P04062 whole entry, looked up): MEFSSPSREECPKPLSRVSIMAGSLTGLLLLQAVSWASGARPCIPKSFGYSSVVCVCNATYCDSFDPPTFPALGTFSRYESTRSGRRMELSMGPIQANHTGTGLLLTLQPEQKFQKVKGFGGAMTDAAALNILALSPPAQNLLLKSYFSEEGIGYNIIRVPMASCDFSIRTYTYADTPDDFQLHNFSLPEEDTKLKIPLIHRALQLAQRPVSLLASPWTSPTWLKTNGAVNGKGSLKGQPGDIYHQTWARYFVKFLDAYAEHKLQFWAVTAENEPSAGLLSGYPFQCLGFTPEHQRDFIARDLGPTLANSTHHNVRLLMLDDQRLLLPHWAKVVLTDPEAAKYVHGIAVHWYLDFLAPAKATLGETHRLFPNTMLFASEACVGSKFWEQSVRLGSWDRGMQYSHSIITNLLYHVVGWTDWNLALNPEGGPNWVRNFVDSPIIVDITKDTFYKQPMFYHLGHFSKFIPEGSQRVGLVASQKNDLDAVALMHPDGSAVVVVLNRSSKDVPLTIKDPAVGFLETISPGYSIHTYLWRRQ

The assay has as its target Lysosomal acid glucosylceramidase (Homo sapiens) (UniProt P04062). Put plainly: Glucocerebrosidase.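 Note: the screen sought inhibitors.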 The note with it: purified enzyme, resorufin glucoside fluorescence (screen aimed at inhibitors), 20 min; series mostly up to 77 µM. Summed up:
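Compounds titrated against 0.2 nM normal enzyme, 30 uM resorufin beta-D-glucopyranoside substrate, citrate/phosphate buffer with taurocholate and tween-20, pH 5.9. Reaction ran 20 min at room temperature; fluorescence (Ex 548/Em 600) gave AC50.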
On to `C/C(N)=C(/C#N)C(=O)CSc1nc2ccc(C)cc2[nH]1`, for which the Potency was inactive: > 76.9 µM.
As for `O=C(Nc1ccc(N2CCOCC2)cc1)c1cnsn1`, the figure is inactive: > 76.9 µM; as for `CCOc1cc2[nH]c(=S)n(Cc3ccc(C)o3)c(=O)c2cc1OCC`, inactive: > 76.9 µM; as for `Cc1ccc(-c2nnc(-c3ccc(NC(=O)c4ccco4)cc3)o2)cc1`, inactive: > 76.9 µM.
As for `CCc1ccc2oc(=O)cc(CN(C)Cc3ccccc3)c2c1`, the figure is inactive: > 76.9 µM.
As to `CCCn1c(SCC(=O)N2CCCc3ccccc32)nc2c1c(=O)n(C)c(=O)n2C`, the Potency is inactive: > 76.9 µM.
Take `CCOC(=O)Cc1csc(NC(=O)c2cnc3scc(C)n3c2=O)n1`: the Potency is inactive: > 76.9 µM.
Then `N#Cc1ccc(NC(=O)COC(=O)C2=COCCO2)cc1`, with inactive: > 76.9 µM; and `Cc1ccc2[nH]c(C(=O)O)c(-c3ccccc3)c2c1`, with inactive: > 76.9 µM; and `COc1ccccc1OCC(=O)NCC1CCCCC1`, with inactive: > 76.9 µM.
Then `O=C(O)c1ccc2c(c1)NC(=O)C(N1CCCC1)S2` (centres undefined), with inactive: > 76.9 µM; and `CCOc1ccc(CCNC(=O)C2CCN(c3ccc(N4CCOCC4)nn3)CC2)cc1OCC`, with “inactive”; and `O=C(NCc1ccccn1)c1cc2cc(Br)ccc2oc1=O`, with inactive: > 76.9 µM.
Turning to `COc1ccc(CN2C(=O)c3ccccc3C2C(=O)NCC2CCCO2)c(OC)c1` (centres undefined), the Potency was inactive: > 76.9 µM.
As for `CC(CCc1ccccc1)NC(=O)CSc1nccc(=O)[nH]1` (centres undefined), the Potency is inactive: > 76.9 µM.
As for `Cc1cccc(Nc2nc3c(c(=O)n(C)c(=O)n3C)n2CC(O)CO)c1` (centres undefined), the figure is inactive: > 76.9 µM; as for `CCC(=O)Nc1cccc(-n2nnnc2SCC(=O)NCc2ccco2)c1`, inactive: > 76.9 µM; as for `CCOc1ccc(-n2c(Cc3cc(=O)[nH]c(=O)[nH]3)nnc2SCC(N)=O)cc1`, inactive: > 76.9 µM.
Consider `O=C(c1cccs1)N(Cc1cccc(Cl)c1)C1CCS(=O)(=O)C1` (centres undefined), for which the Potency was inactive: > 76.9 µM.
As for `CCOC(=O)C1=C(c2ccccc2)Nc2ncnn2C1c1ccccn1` (centres undefined), the figure is inactive: > 76.9 µM.
With `O=C(CCn1c(=O)sc2ccccc21)NC1=NCCS1`, the Potency was inactive: > 76.9 µM.
As for `O=C(NC1CCCc2ccccc21)C1CCN(S(=O)(=O)N2CCCCCC2)CC1` (centres undefined), the figure is inactive: > 76.9 µM; as for `CN(C(=O)c1ccccn1)c1nnc(-c2cccnc2)s1`, inactive: > 76.9 µM; as for `COc1ccc(C(C)NC(=O)c2ccoc2C)cc1OC` (centres undefined), inactive: > 76.9 µM.
Then `Cc1nnc(SCC(=O)Nc2ccccc2NC(=O)CSc2nnc(C)s2)s1`, with inactive: > 76.9 µM; and `CCOC(=O)/C=C1\Nc2ccccc2SC1=O`, with inactive: > 76.9 µM; and `COc1ccc(NS(=O)(=O)c2ccc(OCC(=O)N3CCCC3)cc2)cc1`, with inactive: > 76.9 µM.
Regarding `Cc1cc(C)nc(Nc2ncc(O)n2-c2ccc(C)c(Cl)c2)n1`, the Potency was inactive: > 76.9 µM.
On to `COc1ccc(C2C3=C(N=C4SCC(=O)N42)c2ccccc2CC3)cc1` (centres undefined), for which the Potency entry is “inactive”.
Then `CC1NC(=O)NC1CCCCCC(=O)NCCc1ccccc1` (centres undefined), with inactive: > 76.9 µM; and `CCCN1C(=O)C(O)(C2CC(=O)CC(C)(C)O2)c2ccccc21` (centres undefined), with inactive: > 76.9 µM.
Turning to `Cc1ccc2[nH]c3c(NCCCN4CCCC4=O)ncnc3c2c1`, the Potency was inactive: > 76.9 µM.
Turning to `CC(c1ccccc1)C1CC(=O)N(CC(=O)O)C1=O` (centres undefined), the Potency was inactive: > 76.9 µM.
As for `COC(=O)c1[nH]c2ccc(C)cc2c1NC(=O)CN1CCC(C)CC1`, the figure is inactive: > 76.9 µM; as for `CCc1ccc(NC2=NCC(=O)N2c2ccc3c(c2)OCCO3)cc1`, inactive: > 76.9 µM; as for `Cc1c(-c2ccccc2)nc2ccccc2c1C(=O)O`, inactive: > 76.9 µM.
Turning to `O=C(NCCC1=CCCCC1)C1CCCN(S(=O)(=O)c2ccc(F)cc2)C1` (centres undefined), the Potency is inactive: > 76.9 µM.
For `CCC1Oc2ccc(C)cc2N(CC(=O)NCCCN2CCCCC2CC)C1=O` (centres undefined), the Potency was inactive: > 76.9 µM.
`Cc1cc(C)c2nc(N3CCCC3)c(C#N)cc2c1`: the Potency was inactive: > 76.9 µM.
Regarding `O=C1CSc2ccccc2N1Cc1ccccc1F`, the Potency is inactive: > 76.9 µM.
On to `c1cncc(-c2nnc(C3CCCCC3)o2)c1`, for which the Potency was inactive: > 76.9 µM.
Then `Cc1ccc(OCCn2c(=O)cnc3ccccc32)cc1`, with inactive: > 76.9 µM.
As for `Cc1ccc(-c2cc(C(=O)N3CCCC3)no2)cc1`, the figure is inactive: > 76.9 µM.
For the molecule `Cc1noc(C)c1S(=O)(=O)N1CCC(Cc2ccccc2)CC1`, the Potency is inactive: > 76.9 µM.
Consider `Cc1cc(C)n(C(=O)C23CC4CC(CC(C4)C2)C3)n1`, for which the Potency was inactive: > 76.9 µM.
As for `C=C(C)Cn1c(CCCNC(=O)CC)nc2ccccc21`, the figure is inactive: > 76.9 µM; as for `Cc1cccn2c(=O)c(C=Nc3ccc(Cl)cc3)c(NCCO)nc12`, inactive: > 76.9 µM.
As for `CCCn1c(=NC(C)=O)c(C#N)cc2c(=O)n3cccc(C)c3nc21`, the figure is inactive: > 76.9 µM; as for `O=C(CC(=O)c1ccccc1)Nc1ccc2c(c1)OCCO2`, inactive: > 76.9 µM.
As to `Cc1ccc(NC(=O)c2cccc(N3C(=O)CCC3=O)c2)nc1`, the Potency is inactive: > 76.9 µM.
As for `OC(COc1ccc2ccccc2c1)Cn1ccnc1` (centres undefined), the figure is inactive: > 76.9 µM; as for `COc1ccccc1NC(=O)Cc1noc(CSc2nnc(C)s2)n1`, inactive: > 76.9 µM.
Take `CCCC12CN3CC(C)(CN(C1)C3c1ccc(OC(C)C)cc1)C2=O` (centres undefined): the Potency was active: 1.97 µM.
In the case of `O=S(=O)(c1ccc(Br)s1)N1CCc2ccccc2C1`, the Potency is inactive: > 76.9 µM.
As for `Cn1c(=O)[nH]c(=O)c2c1nc(CN1CCN(c3ccc(F)cc3)CC1)n2CCc1ccccc1`, the figure is inactive: > 76.9 µM.
Then `CC(C)N(Cc1nc(-c2ccccc2)no1)C(=O)c1ccc(Br)o1`, with inactive: > 76.9 µM.
As for `CCCS(=O)(=O)N1CCN(c2ccccc2F)CC1`, the figure is inactive: > 76.9 µM; as for `O=C(Nc1ccc2c(c1)OCO2)c1ccccc1SCC(=O)N1CCCC1`, inactive: > 76.9 µM; as for `O=C(OCc1cc(-c2ccccc2)no1)c1ccc2ccccc2n1`, inactive: > 76.9 µM.
In the case of `Cc1ccc(O)c(C(=O)c2cnn(C(=O)Cc3csc(C)n3)c2)c1`, the Potency is inactive: > 76.9 µM.
Regarding `CCOc1ccccc1C1C(C#N)=C(N)SC(N)=C1C#N`, the Potency was inactive: > 76.9 µM.
As for `O=C(CN1CCOCC1)Nc1c2c(nc3ccccc13)N(Cc1ccccc1)CC2`, the Potency was inactive: > 76.9 µM.
As for `CCn1c(SCC(=O)Nc2cc(C)on2)nnc1-c1cccs1`, the Potency is inactive: > 76.9 µM.
As for `CCOC1(C(F)(F)F)NC(=O)N(Cc2ccc(OC)cc2)C1=O` (centres undefined), the Potency was inactive: > 76.9 µM.
As to `CN=C1SC(CC(=O)Nc2sc3c(c2C#N)CCCC3)C(=O)N1C` (centres undefined), the Potency is inactive: > 76.9 µM.
Regarding `CSc1nc(-c2ccccc2)nc(SC)c1C(C)=O`, the Potency was inactive: > 76.9 µM.
As for `CCc1nnc(NS(=O)(=O)c2ccc(N3C(=O)C4CC=C(Cl)CC4C3=O)cc2)s1` (centres undefined), the figure is inactive: > 76.9 µM; as for `O=C(OCCN1CCCCC1)c1cc2ccccc2o1`, inactive: > 76.9 µM.
As for `CCCCn1c(SCC(=O)N2CCCCC2)nc2cc(S(N)(=O)=O)ccc21`, the figure is inactive: > 76.9 µM; as for `CCCCC(=O)Nc1ccc(NC(=O)C2CC2)cn1`, inactive: > 76.9 µM; as for `O=C1c2ccc(-c3nc4ccccc4o3)cc2C(=O)N1Cc1cccnc1`, inactive: > 76.9 µM.
As for `Cc1ccnc2nc(C(=O)OCCOc3ccccc3)nn12`, the figure is inactive: > 76.9 µM; as for `Cc1nnc(NC(=O)NCN2C(=O)C3C4C=CC(C4)C3C2=O)s1` (centres undefined), inactive: > 76.9 µM.
With `N#Cc1cc2ccccc2nc1SCC(=O)Nc1ccccc1N1CCOCC1`, the Potency is inactive: > 76.9 µM.
For the molecule `O=S(=O)(c1ccc(S(=O)(=O)N2CCCC2)cc1)N1CCCCCC1`, the Potency was inactive: > 76.9 µM.
As for `CCCC(=O)Nc1c2c(nn1-c1ccc(C)cc1C)CSC2`, the figure is inactive: > 76.9 µM.
As to `CCCn1c(-c2ccc(F)cc2)n[nH]c1=S`, the Potency was inactive: > 76.9 µM.
As for `COc1ccc(-n2[nH]c(C)cc2=O)cc1`, the figure is inactive: > 76.9 µM; as for `NC(=O)c1ccsc1NC(=O)CSc1ccccc1F`, inactive: > 76.9 µM; as for `C(=C\c1ccccc1)/CSc1nnc(-c2cccnc2)n1Cc1ccco1`, inactive: > 76.9 µM.
With `CCOc1ccc(C(CC(=O)O)NC(=O)COc2ccccc2)cc1` (centres undefined), the Potency is inactive: > 76.9 µM.
Then `CCOC(=O)C1=C(C)C(c2ccc(OC)cc2OC)NC(=O)N1` (centres undefined), with inactive: > 76.9 µM; and `COCCn1nnnc1CN(CCc1ccccc1)Cc1cc2ccc(C)cc2[nH]c1=O`, with inactive: > 76.9 µM.
As for `CC(C)(C)NC(=O)c1ccc(NC(=O)C2COc3ccccc3O2)cc1` (centres undefined), the figure is inactive: > 76.9 µM; as for `O=c1cc(CSc2ccccn2)c2ccccc2[nH]1`, inactive: > 76.9 µM.
Then `CCn1nnnc1SCC(=O)N1CCOCC1`, with inactive: > 76.9 µM; and `O=C(CN1C(=O)C2(OCCCO2)c2ccccc21)NCCc1ccccc1`, with inactive: > 76.9 µM; and `O=C(NCC(=O)N1CCC(N2CCCCC2)CC1)C1CCCCC1`, with inactive: > 76.9 µM.
For the molecule `CCOC(=O)Cn1c(=O)n(CC(=O)OCC)c2ccccc21`, the Potency was inactive: > 76.9 µM.
Regarding `Cc1cc(C)cc(-n2nnc(C(=O)NCc3ccccc3Cl)c2N)c1`, the Potency is inactive: > 76.9 µM.
As for `CCC(C)NC(=O)CNC(=O)Cn1c(C)cc2ccccc2c1=O` (centres undefined), the figure is inactive: > 76.9 µM.
As for `CCCCN(CCCC)S(=O)(=O)c1ccc(OC)c2ncccc12`, the figure is inactive: > 76.9 µM; as for `CCC(C)Oc1cccc(OCCCCN2C(=O)NC(C)(C)C2=O)c1` (centres undefined), inactive: > 76.9 µM.
In the case of `O=C(NCc1ccco1)C(c1ccco1)N(CCc1ccccc1)C(=O)Cn1nnc2ccccc21` (centres undefined), the Potency is inactive: > 76.9 µM.
